# PubChem BioAssay (NCATS)
# “And” between values parts separate entries of the source, which are not always exact repeats. Identical values can stand only once. Inconclusive results, whose numbers are uncertain, are shown with a selection of clear calls. For some of these results: Potencies of inconclusive entries are doubtful fits and often do not repeat. The source made the active and inactive calls. Calls come from the whole dose curve; as a rule, active = well fitted inhibition curve with a large enough effect; inconclusive = small, poorly fitted or top-dose-only effect; inactive = flat fitted curve, though single readings scatter.
# What was measured:
# [1] = test system: HEK293; test: Cytotoxic Profiling of Annotated Libraries Using Quantitative High-Throughput Screening (AID 1296008); conditions: Five cell lines viability, CellTiter-Glo ATP luminescence, 48-72 h; max response: stronger effect = lower value; for max response: % is set by controls: 0 for no effect and ±100 for the full control effect
# In short: (§1)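 Cytotoxicity was measured as CellTiter-Glo ATP luminescence, read after 10 min at room temperature. Compound treatment of the cells lasted 48 or 72 hr at 37 degrees Celsius in a qHTS format.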
# [2] = test system: HaCat; test: as above; conditions: Five cell lines viability, CellTiter-Glo ATP luminescence, 48-72 h; max response: stronger effect = lower value
# In short: as §1
# [3] = test system: PC15; test: qHTS profiling for inhibitors of Plasmodium falciparum proliferation (AID 504749); conditions: P. falciparum in erythrocytes, SYBR Green DNA, 72 h; series mostly up to 28.7 µM
# In short: (§2)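 Three-day growth assay of blood-stage parasites in erythrocytes (0.3% parasitemia, 2.5% hematocrit) at 37 C, 5% CO2, quantified by SYBR Green DNA staining after overnight detergent lysis.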
# [4] = test system: GB4; test: as above; conditions: P. falciparum in erythrocytes, SYBR Green DNA, 72 h; series mostly up to 28.7 µM
# In short: as §2
# [5] = test system: ICS; test: as above; conditions: P. falciparum in erythrocytes, SYBR Green DNA, 72 h; series mostly up to 28.7 µM
# In short: as §2
# [6] = test system: FAB9; test: as above; conditions: P. falciparum in erythrocytes, SYBR Green DNA, 72 h; series mostly up to 28.7 µM
# In short: as §2
# [7] = test system: W2; test: as above; conditions: P. falciparum in erythrocytes, SYBR Green DNA, 72 h; series mostly up to 28.7 µM
# In short: as §2
# Note: nearly all actives have a fitted effect of over 60% in size.
# Potency is the fitted concentration of half-maximal effect; tags give direction and shape of the fitted curve.
smiles,measurement,setting,value
NCc1c[nH]c(=S)n1[C@H]1CCc2c(F)cc(F)cc2C1,Potency,[1],"inconclusive: 23.5 µM [inhibitor, partial curve, poor fit]"
CS(=O)(=O)Oc1ccc2c(NC(N)=O)c(C(=O)c3ccc(Cl)cc3Cl)oc2c1,max response,[1],inactive: 3.62%
O=C(O)C(=O)Nc1cccc(C2=NN=N[N]2)c1,max response,[1],inactive: -1.4%
O=C1C(c2c(O)[nH]c3ccccc23)=Nc2ccccc21,Potency,[1],"inconclusive: 12.6 µM [inhibitor, single point]"
Cc1cccc(Nc2nc(N[C@@H]3CCCC[C@H]3N)ncc2C(N)=O)c1,Potency,[1],active: 14.8 µM
COc1cc(CNC(=O)CCCCC=CC(C)C)ccc1O,Potency,[1],"inconclusive: 33.2 µM [inhibitor, single point]"
C[C@]12CCC(=O)C=C1[C@@H]1CC1[C@H]1[C@H]3[C@@H]4C[C@H]4[C@@]4(CCC(=O)O4)[C@@]3(C)CC[C@H]12 (stereo partly drawn),Potency,[1],"inconclusive: 26.4 µM [inhibitor, single point]"
CN(C(=O)c1ccc(F)cc1C(F)(F)F)C1CCN(c2nnc(-c3ccnn3C)c3ccccc23)CC1,Potency,[1],"inconclusive: 20.6 µM [inhibitor, single point]"
COC1CCC(C(=O)c2ccc3nc4c(cc3c2)CCCO4)CC1 (stereo not drawn),Potency,[1],"inconclusive: 37.2 µM [inhibitor, single point]"
COc1ccc(Cn2ccc3ccc(C(=O)NO)cc32)cc1,Potency,[1],"inconclusive: 37.2 µM [inhibitor, single point] and inconclusive: 23.1 µM [inhibitor, single point]"
CN1CCN(c2ccc3nc(-c4c(N)c5c(F)cccc5[nH]c4=O)[nH]c3c2)CC1,Potency,[1],active: 1.66 µM
same,Potency,[2],"inconclusive: 1.87 µM [inhibitor, full curve]"
COc1cccc2nc(-c3cccs3)nc(NN3C(=O)C=C(C)C3=O)c12,Potency,[1],active: 418 nM and active: 517 nM
same,Potency,[2],"active: 23.5 µM and inconclusive: 7.31 µM [inhibitor, partial curve, poor fit]"
CC(C)(Oc1ccc(C2CC2(Cl)Cl)cc1)C(=O)O (stereo not drawn),Potency,[3],"inconclusive: 8.91 µM [inhibitor, single point]"
same,Potency,[1],"inconclusive: 67.9 µM [inhibitor, single point]"
same,max response,[2],inactive: -0.292%
same,outcome,[2],inactive
COc1cc(Nc2c(C#N)cnc3cc(OCCCN4CCN(C)CC4)c(OC)cc23)c(Cl)cc1Cl,Potency,[1],active: 2.37 µM and active: 4.18 µM and active: 11.6 µM
same,Potency,[2],active: 841 nM and active: 1.66 µM and active: 2.31 µM
NCC(=O)Nc1ccc(-n2nc(C(F)(F)F)cc2-c2ccc3c(ccc4ccccc43)c2)cc1,Potency,[1],active: 166 nM and active: 1.46 µM
same,Potency,[2],"inconclusive: 29.1 µM [inhibitor, single point]"
S=P(N1CC1)(N1CC1)N1CC1,Potency,[1],"inconclusive: 13.2 µM [inhibitor, partial curve]"
same,Potency,[2],"inconclusive: 37.2 µM [inhibitor, single point]"
CC(C)C[C@H](NC(=O)[C@@H](NC(=O)c1cccc(-c2ccccc2)n1)[C@@H](C)O)B(O)O,Potency,[1],"inconclusive: 0.206 µM [inhibitor, full curve, poor fit]"
same,Potency,[2],active: 526 nM and active: 580 nM
C[C@@H](N)c1ccc(C(=O)Nc2ccnc3[nH]ccc23)cc1,Potency,[1],"inconclusive: 37.2 µM [inhibitor, single point]"
same,Potency,[2],"inconclusive: 33.2 µM [inhibitor, single point]"
CNC(=O)c1ccc2c(C(=Nc3cccc(CN(C)C)c3)c3ccccc3)c(O)[nH]c2c1,Potency,[1],"inconclusive: 37.2 µM [inhibitor, single point] and inconclusive: 20.6 µM [inhibitor, single point]"
same,max response,[2],inactive: 0.629%
same,outcome,[2],inactive
CCN(CC)CCOc1ccc(Nc2ncc3cc(-c4c(Cl)cccc4Cl)c(=O)n(C)c3n2)cc1,Potency,[1],active: 0.209 µM
same,Potency,[2],active: 0.264 µM
Oc1ccc([C@@H]2Oc3ccc(O)cc3[C@@H]3CCC[C@@H]32)cc1,Potency,[1],"inconclusive: 29.1 µM [inhibitor, single point]"
same,Potency,[2],"inconclusive: 23.5 µM [inhibitor, partial curve]"
Cn1cnc(-c2cc3nccc(Oc4ccc(NC(=S)NC(=O)Cc5ccccc5)cc4F)c3s2)c1,Potency,[1],"inconclusive: 20.6 µM [inhibitor, single point]"
same,Potency,[2],"inconclusive: 37.2 µM [inhibitor, single point] and inconclusive: 29.1 µM [inhibitor, single point]"
CC(C)(Sc1ccc(CCN(CCCCC2CCCCC2)C(=O)NC2CCCCC2)cc1)C(=O)O,Potency,[1],"inconclusive: 37.2 µM [inhibitor, single point]"
same,max response,[2],inactive: -19.6% and inactive: 1.18%
C[C@@H](Cc1cc2c(c(C(N)=O)c1)N(CCCO)CC2)NCCOc1ccccc1OCC(F)(F)F,Potency,[1],"inconclusive: 23.5 µM [inhibitor, partial curve]"
same,Potency,[2],"inconclusive: 23.1 µM [inhibitor, partial curve]"
c1ccc([C@H]2CN3CCSC3=N2)cc1,max response,[1],inactive: -11.1%
same,outcome,[1],inactive
O=C(O)CCc1ccc(NCc2cccc(Oc3ccccc3)c2)cc1,Potency,[1],"inconclusive: 23.1 µM [inhibitor, single point]"
same,outcome,[1],inactive
same,max response,[2],inactive: -7.54%
same,outcome,[2],inactive
CC1=C(C(=O)O)N2C(=O)[C@@H](NC(=O)C(N)c3ccccc3)[C@H]2SC1 (stereo partly drawn),max response,[1],inactive: -2.36%
same,max response,[2],inactive: 3%
O=C(c1ccc(C=Cc2n[nH]c3ccccc23)cc1)N1CCNCC1,max response,[1],inactive: -9.22%
same,Potency,[2],"inconclusive: 8.33 µM [inhibitor, partial curve]"
CCOCC(O)COc1ccc(NC(=O)CC[S+](C)C)cc1 (stereo not drawn),Potency,[4],inactive
same,Potency,[5],"inconclusive: 17.8 µM [inhibitor, single point]"
same,max response,[1],inactive: -1.76% and inactive: 3.69%
same,max response,[2],inactive: 4.61%
same,outcome,[2],inactive
CCOC(=O)[C@H](CCc1ccccc1)N[C@H]1CCc2ccccc2N(CC(=O)O)C1=O,Potency,[1],"inconclusive: 29.9 µM [inhibitor, single point]"
same,Potency,[2],"inconclusive: 37.2 µM [inhibitor, single point]"
C[C@H](c1ccc(F)cc1CCCC(=O)O)N(c1cc(F)ccc1F)S(=O)(=O)c1ccc(Cl)cc1,max response,[1],inactive: -10.5%
same,outcome,[1],inactive
CCCCN1CCC(CNC(=O)c2c3n(c4ccccc24)CCCO3)CC1,Potency,[1],"inconclusive: 33.2 µM [inhibitor, single point]"
same,Potency,[2],"inconclusive: 11.8 µM [inhibitor, full curve, poor fit]"
O=C1CSC(=O)N1C(CCc1ccncc1)COc1ccc(-c2cccc([N+](=O)[O-])c2)cc1 (stereo not drawn),Potency,[1],"inconclusive: 1.18 µM [inhibitor, full curve]"
same,max response,[2],inactive: -30.8%
Fc1ccc(CNc2ncnc3ccc(F)cc23)cc1,Potency,[1],active: 6.51 µM
same,Potency,[2],"inconclusive: 18.7 µM [inhibitor, partial curve]"
O=C1c2cccc(O)c2C(=O)c2c(O)cc(CO)cc21,Potency,[1],"inconclusive: 7.43 µM [inhibitor, single point]"
same,max response,[2],inactive: -18.1%
CCCCCN(CCC12CC3CC(CC(C3)C1)C2)C(=O)NCCCc1ccncc1,Potency,[1],"inconclusive: 23.5 µM [inhibitor, single point]"
same,max response,[2],inactive: -32%
COc1cccc(Nc2c(C(N)=O)cnc3c(C)cc(S(=O)(=O)c4cccc(C(=O)N(C)C)c4)cc23)c1,Potency,[1],"active: 12.9 µM and inconclusive: 29.1 µM [inhibitor, single point]"
same,Potency,[2],"inconclusive: 0.0116 µM [inhibitor, full curve]"
C=CC(=O)N1CCc2ccc(-n3c(=O)ccc4cnc5ccc(-c6cnn(C)c6)cc5c43)cc21,Potency,[1],"inconclusive: 3.72 µM [inhibitor, full curve, poor fit]"
same,Potency,[2],"inconclusive: 26.4 µM [inhibitor, single point]"
Clc1ccccc1CN1CCc2sccc2C1,Potency,[1],"inconclusive: 37.2 µM [inhibitor, single point]"
same,Potency,[2],"inconclusive: 29.9 µM [inhibitor, single point]"
CC=C1C2C=C(C)CC1(N)c1ccc(=O)[nH]c1C2 (stereo not drawn),Potency,[1],"inconclusive: 37.2 µM [inhibitor, single point]"
same,outcome,[2],inactive
CC(C)(C)c1cc(NC(=O)Nc2ccc(-c3cn4c(n3)sc3cc(OCCN5CCOCC5)ccc34)cc2)no1,Potency,[1],active: 1.18 µM and active: 5.8 µM
same,outcome,[2],inactive
Cc1csc(-c2nnc(Nc3ccc(Oc4ncccc4-c4ccnc(N)n4)cc3)c3ccccc23)c1,Potency,[1],"inconclusive: 33.2 µM [inhibitor, single point] and inconclusive: 25.9 µM [inhibitor, single point]"
same,Potency,[2],"inconclusive: 5.17 µM [inhibitor, partial curve, poor fit]"
Cn1c(NCCN(CCO)CCCc2ccc([N+](=O)[O-])cc2)cc(=O)n(C)c1=O,Potency,[6],inactive
same,Potency,[7],"inconclusive: 19 µM [inhibitor, single point]"
same,Potency,[1],"inconclusive: 33.2 µM [inhibitor, single point]"
same,outcome,[1],inactive
CCc1c(O)cc(O)c(C(=O)c2ccc(OCCN3CCOCC3)c(OC)c2)c1CC(=O)N(CCOC)CCOC,Potency,[1],active: 0.833 µM
same,Potency,[2],"inconclusive: 4.69 µM [inhibitor, partial curve]"
